Results taken from PubChem BioAssay AID1508624 (National Center for Advancing Translational Sciences (NCATS), 2021).
Out of some 48,000 compounds screened, about 120 (0.25%) were called active. Inconclusive results (about 4%) are left out. The call rests on the fitted dose curve; in most records, active means well fitted activation curve with a large enough effect; inconclusive means small, poorly fitted or top-dose-only effect, or another doubt; inactive means no such curve, though single readings can be large or run the other way. The list shows a part of the results.

assay: Primary qHTS for Identification of Small Molecule Activators of Huntingtin-Antisense Promoter Activity; details: HEK293 HTT-AS promoter firefly luciferase reporter (activity 0% = vehicle and -100% = no light), 24 h; series mostly up to 57.5 µM; activity change, positive = activation: at the top concentration; further: nearly all actives have a fitted effect of over 55% in size
In short: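 Firefly luciferase signal from promoter-reporter HEK293 cells was scaled between vehicle (0%) and zero RLU (-100%). Compounds were tested at final concentrations of up to 57.5 uM over 24 h at 37 degrees C. PTC124 at 50 uM final served as control inhibitor.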

Activity change, positive = activation, inactive:
CCOc1ccc(Nc2nc(-c3cccc(Cl)c3)c3c(n2)-c2ccccc2OC3)cc1 -12.5%, CCC1CN(C(=O)N2CCC(C(=O)NCCc3ccc(OC)cc3OC)CC2)c2cc(C)ccc2O1 (stereo not given) -45.8%, Cc1cccc(OCc2nc(CC(=O)Nc3ccc(Cl)cc3)cs2)c1 -14.7%, Cc1cccc(C)c1-n1ncc(C(=O)NCCCN2CCC(C)CC2)c1C1CCN(C(=O)OC(C)(C)C)CC1 10.7%, CCOC(=O)c1cnc2c(ccc3ccccc32)c1Nc1ccc(C(C)=O)cc1 -31.8%, COc1cccc(CSc2nc3ccncc3n2CC(=O)Nc2ccc(OC)c(OC)c2OC)c1 3.11%, Cc1cn(-c2cc(NC(=O)c3ccc(C)c(Nc4nccc(-c5cccnc5)n4)c3)cc(C(F)(F)F)c2)cn1 -8.1%, CCCCN(CCCC)CC(O)c1cc(Cl)cc2c1-c1ccc(Cl)cc1/C2=C/c1ccc(Cl)cc1 (stereo not given) -16.7%, COc1ccccc1CNC(=O)Cc1csc2nc(-c3ccc(F)cc3)cn12 -9.4%, O=S(=O)(c1ccc(Cl)cc1)c1nc(-c2cccs2)oc1N1CCCCC1 -24.7%, CCc1cc2c(cc3c(=O)n(CC(=O)NC(C)c4ccccc4)ncn32)s1 (stereo not given) -6.91%, COc1cccc(NC(=O)CCN2C(=O)c3ccccc3Sc3ncccc32)c1 -6.27%, Cc1cc(C)nc(-n2nc(C)c3c2N(Cc2ccccc2F)C(=O)CC3c2ccc(Cl)cc2)n1 (stereo not given) -17.9%, CCc1ccccc1NC(=O)C1CCN(S(=O)(=O)c2cn(C)cn2)CC1 -1.9%, CCOC(=O)c1sc2ccccc2c1S(=O)(=O)NCc1ccccc1OC -28.8%, O=C(Nc1nnc(-c2ccco2)o1)c1cc(-c2ccccc2)nc2ccccc12 -10.8%, Cc1c(CCNC(=O)c2c(F)cccc2F)sc2nc(-c3ccc(F)cc3)nn12 9.5%, CCOc1ccc(CCn2c3c(c(=O)[nH]c2=O)C(NC(=O)c2cccc(F)c2)(C(F)(F)F)C(=O)N3)cc1OCC (stereo not given) -6%, Cn1ncc2c(N3CCN(c4ccc(F)cc4)CC3)ncnc21 -22.2%, O=C(Cc1ccc(-c2ccccc2)cc1)NCCS(=O)(=O)N1CCN(c2ccc(F)cc2)CC1 -3.43%, Cc1cc(O)cc(C)c1Cl -0.488%, COc1cc(-c2nc3sccn3c2Nc2c(C)cccc2C)ccc1O -3.89%, CC(=O)N(c1onc(C)c1C)S(=O)(=O)c1ccc(N)cc1 6.26%, O=C1Cc2cc(S(=O)(=O)N3CCN(c4cccc(Cl)c4)CC3)ccc2N1 -11.3%, CC(=O)N1CCCc2ccc(NS(=O)(=O)c3cccc(Cl)c3)cc21 -2.65%, CCn1c(C(=O)NCCc2ccc(S(N)(=O)=O)cc2)cc2sc(Cl)cc21 -34.9%, CC(=O)N1CCCC1c1nc2ccccc2n1Cc1ccccc1Cl (stereo not given) -9.13%, O=C(CC1N=C2c3ccccc3N=C(SCc3ccc(F)cc3)N2C1=O)NCCc1ccccc1 (stereo not given) -21.3%, O=C(CSc1nccn1-c1ccc(F)cc1)Nc1nc2ccccc2s1 14.8%, Cc1cccc(Cn2c(-c3ccccc3)nc3ccccc32)c1 -22.7%, Cc1ccc(-c2cnc(C3CC3)o2)cc1S(=O)(=O)Nc1cccc(C)c1C 5.48%, CC(C)(C)OC(=O)N1CCC(c2c(C(=O)N3CCN(c4ccccn4)CC3)cnn2-c2ccc(F)cc2F)CC1 -7.34%, CCN1CCN(c2csc3ccc(Br)cc3c2=O)CC1 25.5%, COc1ccc(NC(=O)C2CCCN(S(=O)(=O)c3c(C)[nH]c(=O)[nH]c3=O)C2)cc1OC (stereo not given) 0.789%, CCn1c(=O)c2cc(C(=O)NCc3cc(OC)ccc3OC)sc2c2ccccc21 -12.4%, Cc1ccc(NC(=O)C2CCCN(c3ncnc4c3nc3n4CCCCC3)C2)c(Br)c1 (stereo not given) 3.85%, CC(C)(C)c1ccc(C(=O)NCC(=O)OCc2cc(=O)n3nc(C4CC4)sc3n2)cc1 -14%, COc1ccc(Cl)cc1NCc1nnc2n1CCCCC2 -5.92%, CCCNC(=O)Nc1ccc(Oc2ncnc3cc(OC)c(OC)cc23)cc1Cl -10.1%, COc1ccc(NC(=O)c2oc3ccccc3c2NC(=O)c2cc(=O)c3cc(Cl)ccc3o2)cc1 -9.24%, COc1ccc(CC(C)NS(=O)(=O)c2ccc3c(c2)CCN3S(C)(=O)=O)cc1OC (stereo not given) -34%, COC(=O)c1c(NC(=O)c2ccc(OC)cc2OC)sc2c1CCCCC2 -2.81%, Cc1cccc(C(=O)Nc2cc3c(cc2C)n(C)c(=O)n3C)c1 -6.26%, CCC(=O)N1CCc2cc(Br)cc(S(=O)(=O)NCCc3cccc(C)c3)c21 -26.8%, O=C(Nc1sc2c(c1C(=O)NCc1ccco1)CCCC2)c1cc(=O)c2cc(Cl)ccc2o1 -11.5%, Cc1nnc(N2CCN(C(=O)NCCC(C)C)CC2)c2nn(-c3ccc(Cl)cc3)c(C)c12 -1.96%, Cc1cc(C)c2nc(C)cc(Nc3cccc(C(=O)O)c3)c2c1 4.52%, CCOc1cc(C(=O)Nc2cc3c(cc2N2CCCC2)n(C)c(=O)c(=O)n3C)cc(OCC)c1OCC -2.37%, CC(=O)N1CCC(N(Cc2ccc(C)o2)C(=O)Nc2cccc(C(F)(F)F)c2)CC1 -16.2%, Cc1ccc2c(c1)-c1nc(-c3ccc4c(c3)NC(=O)CO4)cc(-c3ccccc3)c1CO2 -7.76%, NS(=O)(=O)c1cc2c(cc1Cl)CN(C1CCCCC1)C2=O 7.71%, Cc1ccc(C)c(NC(=O)CN2C(=O)CCc3cc(S(=O)(=O)N4CCCCC4)ccc32)c1 -11.3%, COc1ccccc1NC(=O)Cn1c(C)cc(C)c(C#N)c1=O -1.8%, O=C(CCCCn1c(=O)c2ccccc2n(Cc2cccc(F)c2)c1=O)NCCc1ccccc1 -34.7%, O=C(NC1CCN(Cc2ccccc2)CC1)c1ccc(Cn2c(=O)c3ccccc3n(Cc3ccc(Cl)cc3)c2=O)cc1 -22.7%, COc1ccc(NC(=O)Nc2cc(-c3cn4cccnc4n3)ccc2C)cc1 1.8%, CC(=O)N1CCc2c(sc3c2c(=O)n(-c2ccccc2)c(=O)n3CC(=O)c2ccccc2)C1 -9.17%, CC(=O)N1CCc2cc(S(=O)(=O)NC(Cc3ccccc3)C(=O)NCc3ccccc3)ccc21 (stereo not given) -12.9%, CC(=O)Nc1ccc(NC(=O)c2ccc3c(c2)N(Cc2cccc(Cl)c2)C(=O)c2ccccc2S3=O)cc1 (stereo not given) -32.5%, Cc1ccc(Cn2c(=O)n(Cc3ccccc3)c(=O)c3oc4ccccc4c32)cc1 -19.5%, CC(=O)c1cccc(NC(=O)c2sc(-n3nc(C)c(Cc4ccccc4)c3C)nc2C)c1 -26.8%, CCCCN(C)CC(O)Cn1cc(/C=C/C(=O)c2ccc(Br)cc2)c2ccccc21 (stereo not given) -34.1%, CCCS(=O)(=O)N1CC(=O)N(c2cccc(Cl)c2)C(C)(C(=O)NC2CCCCC2)C1 (stereo not given) -10.3%, Cc1cc(=O)[nH]c2nnc(SCc3ccc(Cl)cc3Cl)n12 -5.2%, Cc1ccc2c(CNC3CCCCC3)c(C(=O)O)n(Cc3ccc(F)cc3)c2c1 -15%, COCCNC(=O)c1ccc2c(c1)N(Cc1cc(C)ccc1C)C(=O)c1ccccc1S2=O (stereo not given) -22.2%, O=C(Cn1c(SCc2ccc(F)cc2)nc2cccnc21)Nc1ccccc1F 22.3%, COc1cccc2cc(-c3nc(-c4ccccc4F)no3)c(=O)oc12 1.72%, CC(=O)OCC(=O)[C@@]1(O)[C@H](C)C[C@H]2[C@@H]3C=C(C)C4=Cc5c(cnn5-c5ccccc5)C[C@]4(C)[C@@H]3[C@@H](O)C[C@@]21C -21.1%, O=C(Nc1ccc(F)c(Cl)c1)c1ccc2c(Cl)c3c(nc2c1)CCCC3 -7.53%, CCOc1ccccc1CNC(=O)c1cc2c(=O)n(Cc3cccnc3)ccc2nc1C -14.5%, CCOc1ccc2nc(NC(=O)c3nc(SCc4ccccc4F)ncc3Cl)sc2c1 16.9%, Cc1cc(C)cc(-n2c(SCC(=O)Nc3ccccc3)nc3c(oc4ccccc43)c2=O)c1 -11.6%, Cc1ccc(-n2nc3c(=O)n(C(C)C(=O)NCc4ccc(OC(C)C)cc4)nc(C)c3c2C)cc1 (stereo not given) -58.3%, COc1ccc2c(CNCc3cccs3)c(C(=O)O)n(Cc3ccc(F)cc3)c2c1 -24.3%, CC(=O)c1ccc(NC(=O)CSC2=Nc3ccccc3N=C(c3ccc(F)cc3)C2)cc1 -37.1%, CC(C)Cn1cc(NC(=O)N2CCN(c3ccc(F)cc3)CC2)c2ccccc2c1=O -4.83%, COc1cc(OC)cc(-c2nc3nc(C)c(CCC(=O)Nc4cc(C)cc(C)c4)c(C)n3n2)c1 -11%, CCCCn1c(=O)n(CC2CCC(C(=O)NCCCOC)CC2)c(=O)c2sccc21 (stereo not given) -5.88%, O=C(NCc1ccc(Cl)cc1)C1CCN(S(=O)(=O)c2cccc3nonc23)CC1 -16.9%, CCC(Cc1ccccc1)NC(=O)Cn1nc(C)n2c(cc3occc32)c1=O (stereo not given) -11.6%, COc1ccc(-c2noc(CSc3nnc(C)n3-c3ccc(C)cc3)n2)cc1 -15.1%, CC(C)(CO)[C@@H](O)C(=O)NCCC(=O)O -14.8%, COc1ccc(N2CC(C(=O)Nc3ccccc3-c3nc(-c4ccc(C)cc4)no3)CC2=O)cc1 (stereo not given) 14.8%, CCCSc1nc2c(c(=O)[nH]1)C(c1ccc(O)c(OCC)c1)CC(=O)N2 (stereo not given) -20.9%, Cn1c(=O)c2c(nc(NCc3ccccc3)n2Cc2ccc(Cl)c(Cl)c2)n(C)c1=O -42.9%, COc1ccc(C(=O)NCCc2nc3ccccc3[nH]2)cc1 -20.4%, CCOc1ccc(C(CC(=O)Nc2ccc(C(=O)OC)cc2)N2Cc3ccccc3C2=O)cc1OC (stereo not given) -14.1%, CC(C)(C)c1ccc(OCc2cc(=O)n3c4c(sc3n2)CCCC4)cc1 -10.8%, Cc1ccccc1CSCc1ccc(C(=O)NCCc2ccccc2)o1 -10.1%, COc1cccc(NC(=O)c2oc3ccc(S(=O)(=O)N4CCC5(CC4)OCCO5)cc3c2C)c1 -44.6%, CCN(CCCCOC(=O)c1ccc(OC)c(OC)c1)C(C)Cc1ccc(OC)cc1 (stereo not given) -5.93%, CN(C)c1ccc(CNS(=O)(=O)c2csc(C(N)=O)c2)cc1 -38.8%, O=C(NCC(c1ccco1)S(=O)(=O)c1cccs1)c1ccc(C(F)(F)F)cc1 (stereo not given) -13.2%, CCn1cc2nc(SCc3ccccc3)n(Cc3ccc(C)cc3)c(=O)c2n1 5.15%
